Results as given in the BET-seq Pho4 binding data (Le et al. 2018).
The other results are listed elsewhere or left out. These are noisy estimates, calculated here from bound and input reads.

What follows are sequences tested against T1, Pho4 (S. cerevisiae) (UniProt P07270) (assay: relative binding free energy (BET-seq); higher = weaker binding). Settings: reference: library average.
T1 sequence: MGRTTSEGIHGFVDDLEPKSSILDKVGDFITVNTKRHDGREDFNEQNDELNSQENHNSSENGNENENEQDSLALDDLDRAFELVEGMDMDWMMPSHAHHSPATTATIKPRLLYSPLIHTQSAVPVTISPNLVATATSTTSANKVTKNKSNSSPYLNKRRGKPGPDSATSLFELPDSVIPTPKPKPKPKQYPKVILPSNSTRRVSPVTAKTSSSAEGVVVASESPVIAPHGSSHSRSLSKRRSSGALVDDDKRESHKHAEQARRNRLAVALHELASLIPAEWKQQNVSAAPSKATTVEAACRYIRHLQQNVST

Sequence	relative binding free energy [kcal/mol]
ATATTCACGTGTTGTA	0.2
ATCTACACGTGTGGGA	0.21
TGTTACACGTGCTTGC	0.19
GAGTTCACGTGTTAGA	0.31
CGAGTCACGTGCGGGT	0.12
TCGCGCACGTGGGGGA	-0.23
ACGTTCACGTGGGGAT	0.27
CGGGGCACGTGGTCGC	-0.15
CAAGTCACGTGGGCTG	0.05
ATTGGCACGTGTTTAC	-0.22
GTGTCCACGTGGTAGG	0.07
CGGTCCACGTGAGTGG	0.14
ATTATCACGTGGTCTG	-0.05
CAGTGCACGTGTGGTT	0.09
GGTGACACGTGTGATG	0.18
AGTGGCACGTGATAGG	0.1
GCGCGCACGTGGGGAG	-0.19
GTCTGCACGTGTAATT	0.14
ATATGCACGTGGATGG	-0.11
ATGGTCACGTGTCGAG	0.05
TGCTGCACGTGGGGAC	-0.12
TTTTACACGTGTCAGA	0.17
GAGGTCACGTGCGTGT	0.17

Sequence	relative binding free energy [kcal/mol]
TTTGTCACGTGTCCTT	-0.06
GTAGTCACGTGAGGTG	0.3
GTTTTCACGTGTGGAA	0.33
TGCTGCACGTGTTTTT	-0.04
TTGTACACGTGGAGGA	-0.1
CTGTCCACGTGTGTGG	0.02
AGTAGCACGTGGATTG	-0.14
TCGTTCACGTGTTGTA	0.41
TCTGTCACGTGGGTTA	-0.09
ATAACCACGTGTGGGT	-0.01
GTAAGCACGTGTGTAA	0
CTTGTCACGTGACGGT	-0.01
GGGGCCACGTGGGGGG	-0.12
TGGTTCACGTGTTTCT	0.24
GTCGGCACGTGGTTCT	0.03
AATAGCACGTGGTTAT	-0.14
AACAGCACGTGGGGAG	-0.07
TTGCGCACGTGTGGGT	-0.11
TTTAGCACGTGTTTAC	-0.13
GATGTCACGTGTTTTT	0.24
GCGAGCACGTGATTGG	0.17
GCTTTCACGTGGTTAG	0.44
TTGCACACGTGTTTTA	0.17

Sequence	relative binding free energy [kcal/mol]
GGTGGCACGTGTTTCA	-0.07
TAAGGCACGTGATTGT	-0.02
TGGAGCACGTGTGAGT	0
CGTGACACGTGAGGTT	0.15
ACGGCCACGTGTTGGG	0.01
CGTAACACGTGGTTTG	-0.17
AGCTTCACGTGTGGCT	0.18
AGGGGCACGTGGGACA	-0.29
AAGCGCACGTGTTGGT	-0.15
TGTTGCACGTGCTTGG	0.02
ATTAGCACGTGTATAG	-0.12
GTGGTCACGTGGATAT	0.21
GGGTTCACGTGGTTGC	0.37
GGATTCACGTGTAATG	0.43
TAATTCACGTGGTTGC	0.29
TTATCCACGTGTGGGA	-0.12
GAATTCACGTGGTACG	0.37
GGCAGCACGTGTATGG	0
TTAGGCACGTGTGTTC	-0.13
ATTTTCACGTGGAGAG	0.27
TTAGACACGTGAGGTC	0.18
CTTAGCACGTGATGAT	0.11
ATTTACACGTGTTTGC	0.11

Sequence	relative binding free energy [kcal/mol]
AGCAGCACGTGGTGTT	-0.3
GGAGTCACGTGAGGTT	0.29
GGTAGCACGTGAGGCG	0.24
AGTAGCACGTGTGTTG	-0.15
AGAATCACGTGTGGGC	0.28
GGGGTCACGTGTGCGT	0.02
AGAAGCACGTGTAGGT	-0.13
TGTGCCACGTGGGACG	-0.26
TATGGCACGTGATTTT	0.03
GTGGCCACGTGTGAAT	0.23
TATGACACGTGGTTCA	-0.05
GGGCCCACGTGGAGTG	-0.14
AGGGACACGTGCGTTT	-0.17
TTGCGCACGTGTGCGG	-0.21
TTTGCCACGTGAGGAG	0.27
GGTGTCACGTGTAGAT	0.33
AGGTGCACGTGTTCGA	-0.05
AAGTGCACGTGGTCAG	-0.19
GGCGGCACGTGTGTAG	-0.02
GGGTCCACGTGGAGCG	0.08
TGGTTCACGTGGTTTA	0.23
GTTCACACGTGATAGT	0.39
GGACGCACGTGGTTGT	-0.05

Sequence	relative binding free energy [kcal/mol]
TGTGGCACGTGCCTGA	-0.15
ATGGACACGTGATGCT	0.08
GGGGGCACGTGCGCAG	-0.16
ATTTACACGTGACTTT	0.16
GTCTGCACGTGAAGGG	0.27
GGAGACACGTGAGGTT	0.08
AAGGTCACGTGGTACT	0.03
CCGTTCACGTGTGGTT	0.32
GATATCACGTGTTTGC	0.21
AGTGGCACGTGATTAT	0.11
TGAGGCACGTGCGGTA	-0.15
GTAAACACGTGTTATG	0.07
TTAATCACGTGAGGGG	0.38
GGGCTCACGTGGGCCG	0.1
TGGTGCACGTGCATAG	-0.11
ACGGTCACGTGGTTTA	-0.04
TCAGTCACGTGTAGAG	0.1
TTTGTCACGTGCCGGG	0.09
TGCGTCACGTGTGTGA	0.08
GATGTCACGTGCGTGT	0.01
TGTGGCACGTGCTTGT	-0.17
GTGTGCACGTGGTTTC	-0.01
TTTAGCACGTGTCTGA	-0.08
